Data from a collection of fitness landscapes (doi:10.1016/j.celrep.2020.107928).
Whole data set: some 81,000 sequences, median “one-hybrid fitness for binding parS DNA” near -0.17, cut for the highest 2% near 0.51. Some of the results follow.

B1: Caulobacter ParB omega fusion; a variant is named by its letters at X, in order, B8GW30 (parent)
chain: MESVVVGEPGMSEGRRGLGRGLSALLGEVDAAPAQAPGEQLGGSREAPIEILQRNPDQPRRTFREEDLEDLSNSIREKGVLQPILVRPSPDTAGEYQIVAGERAWRAAQRAGLKTVPIMVRELDDLAVLEIGIIENVQRADLNVLEEALSYKVLMEKFERTQENIAQTIGKSXSHVANXMRLLXLPDEVQSYLVSGELTAXHARAIAAAADPVALAKQIIEGGLSVRETEALARKAPNLSAGKSKGGRPPRVKDTDTQALESDLSSVLGLDVSIDHRGSTGTLTITYATLEQLDDLCNRLTRGI

Variants of: B1
Experiment: one-hybrid fitness for binding parS DNA (scaled: cognate 1, non-cognate 0); higher = stronger binding
Settings: with parS DNA site
Summary of the method: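 In E. coli USO, a HIS3 reporter with its site placed 19 bp from the promoter was used to select Caulobacter ParB variants randomised at four specificity codons. Growth lasted 48 hours at 37°C on histidine-free M9 containing 0.1 mM IPTG and 5 mM 3-AT. Fitness was taken as the log change in variant-to-wild-type read ratio from Illumina sequencing of pre- and post-selection plasmids, rescaled between the non-cognate and cognate sites.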

Variant	one-hybrid fitness for binding parS DNA
KFNA	≤ 0.2
RRNI	≤ 0.2
SIMS	≤ 0.2
ECPM	≤ 0.2
VMRS	≤ 0.2
QKLD	≤ 0.2
RLAD	≤ 0.2
KLPV	≤ 0.2
LCVS	≤ 0.2
ILCS	≤ 0.2
EVGS	≤ 0.2
IRER	≤ 0.2
QASD	≤ 0.2
RHIV	≤ 0.2
MNNG	≤ 0.2
HDCD	≤ 0.2
FFTA	≤ 0.2
RWVA	0.329
TAMP	≤ 0.2
FRLA	≤ 0.2
GQAE	≤ 0.2
ANKR	≤ 0.2
LMNM	≤ 0.2
YRTF	≤ 0.2
AEMS	≤ 0.2
LVLS	≤ 0.2

Variant	one-hybrid fitness for binding parS DNA
LPAS	≤ 0.2
HWYR	≤ 0.2
SKTA	≤ 0.2
HKLR	≤ 0.2
QRRP	≤ 0.2
TING	≤ 0.2
IARN	≤ 0.2
KLNV	≤ 0.2
FTPK	≤ 0.2
EHDL	≤ 0.2
GRRS	≤ 0.2
KCVT	≤ 0.2
CLYS	≤ 0.2
RESF	≤ 0.2
YFIS	≤ 0.2
EARN	≤ 0.2
RAAV	≤ 0.2
TLAM	≤ 0.2
NKKS	≤ 0.2
VCQR	≤ 0.2
MDPT	≤ 0.2
LIKT	≤ 0.2
GVPS	≤ 0.2
RTCW	0.215
PTKT	≤ 0.2
VKYT	≤ 0.2

Variant	one-hybrid fitness for binding parS DNA
RAEC	0.807
YATV	≤ 0.2
CPSR	≤ 0.2
TNWC	≤ 0.2
RAQE	≤ 0.2
YNKI	≤ 0.2
ITAP	≤ 0.2
NSWC	≤ 0.2
CTWG	0.274
TCAS	≤ 0.2
MAFC	≤ 0.2
ILKA	≤ 0.2
KTLC	≤ 0.2
AYDC	≤ 0.2
TDFG	≤ 0.2
QVHV	≤ 0.2
PATN	≤ 0.2
QDKY	≤ 0.2
PWKY	≤ 0.2
PARI	≤ 0.2
KSHW	≤ 0.2
QSFR	≤ 0.2
CYWG	≤ 0.2
AFIA	≤ 0.2
CVSP	≤ 0.2
LQML	≤ 0.2

Variant	one-hybrid fitness for binding parS DNA
FLTE	≤ 0.2
LSCG	≤ 0.2
RLWI	≤ 0.2
SQRM	≤ 0.2
TNMW	≤ 0.2
KEAR	≤ 0.2
PFQQ	≤ 0.2
TEAW	≤ 0.2
TCTM	≤ 0.2
VGYV	≤ 0.2
LGPP	≤ 0.2
SFLG	≤ 0.2
EVSY	≤ 0.2
QYNH	≤ 0.2
WVLV	≤ 0.2
TGPT	≤ 0.2
RGLE	≤ 0.2
TERS	≤ 0.2
YGPT	≤ 0.2
TTSA	≤ 0.2
WQHC	≤ 0.2
PQLK	≤ 0.2
SLKI	≤ 0.2
LLAQ	≤ 0.2
NVFS	≤ 0.2
MMDG	≤ 0.2

Variant	one-hybrid fitness for binding parS DNA
DACF	≤ 0.2
RTTY	0.477
HIPP	≤ 0.2
QWLI	≤ 0.2
VTHT	≤ 0.2
AQSK	≤ 0.2
RNHK	≤ 0.2
TMTS	≤ 0.2
CPRS	≤ 0.2
HCCT	≤ 0.2
RTGP	≤ 0.2
CANA	≤ 0.2
EKST	≤ 0.2
RIKF	0.303
IPTE	≤ 0.2
LGGY	≤ 0.2
SAPE	≤ 0.2
ARHC	≤ 0.2
DISS	≤ 0.2
ISAC	≤ 0.2
VHHR	≤ 0.2
RASF	0.234
SHNV	≤ 0.2
LACG	≤ 0.2
GKVS	≤ 0.2
LTLG	≤ 0.2

Variant	one-hybrid fitness for binding parS DNA
DNPV	≤ 0.2
RFNA	0.57
NPQD	≤ 0.2
PNWC	≤ 0.2
RWDG	0.616
EDWG	≤ 0.2
PSAG	≤ 0.2
RRNP	≤ 0.2
QACA	≤ 0.2
ATRV	≤ 0.2
RCQS	0.986
RIDC	0.866
KSVS	≤ 0.2
CHKP	≤ 0.2
MANT	≤ 0.2
TRTT	≤ 0.2
EPYL	≤ 0.2
WYSC	≤ 0.2
VKRY	≤ 0.2
QLDR	≤ 0.2
HVLR	≤ 0.2
HRVH	≤ 0.2
FAFR	≤ 0.2
